# Source: the supplement of paper PMC4604168 (melanoma cell lines)
# The other results are listed elsewhere or left out. Most values come without repeats; read them as rough.
# Assays:
# Experiment in all cases: cell count relative to DMSO control; melanoma cells; higher = more viable cells
# Settings in all cases: library dose: low library concentration; 72 h
# COLO792 = system: COLO792
# COLO800 = system: COLO800
# COLO829 = system: COLO829
# G361 = system: G361
# IPC-298 = system: IPC-298
# IST-MEL1 = system: IST-MEL1
# LB2518-MEL = system: LB2518-MEL
# LOXIMVI = system: LOXIMVI
# MEL-HO = system: MEL-HO
# MZ2-MEL = system: MZ2-MEL
# MeWo = system: MeWo
# RPMI7951 = system: RPMI7951
# RVH-421 = system: RVH-421
# SkMel28 = system: SkMel28
# SkMel30 = system: SkMel30
# SkMel5 = system: SkMel5
# UACC257 = system: UACC257
# UACC62 = system: UACC62
# WM115 = system: WM115
# WM1716 = system: WM1716
# 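Also: cell number obtained by counting DAPI-stained nuclei in high-throughput microscope images with image analysis software, screen run in 1,536-well plates.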
Compound,cell count (COLO792),cell count (COLO800),cell count (COLO829),cell count (G361),cell count (IPC-298),cell count (IST-MEL1),cell count (LB2518-MEL),cell count (LOXIMVI),cell count (MEL-HO),cell count (MZ2-MEL),cell count (MeWo),cell count (RPMI7951),cell count (RVH-421),cell count (SkMel28),cell count (SkMel30),cell count (SkMel5),cell count (UACC257),cell count (UACC62),cell count (WM115),cell count (WM1716)
"COc1ccc(-c2ccc3c(N4CCOCC4)nc(N4C[C@@H](C)O[C@@H](C)C4)nc3n2)cc1CO + COc1cc2ncnc(Nc3ccc(Oc4ccccc4)cc3)c2cc1OC [SrcI1] (first compound 0.02 µM, partner dose 2 µM)",86.6%,96.6%,109%,90.7%,90.7%,92.4%,105%,100%,81.8%,91.8%,78.9%,115%,113%,85.8%,87.7%,103%,83.5%,107%,98.3%,104%
"N#Cc1c(O)c2c(-c3ccc(-c4ccccc4O)cc3)csc2[nH]c1=O + COc1ccc2c(c1)CCC1C2CCC2(C)C(NCCCCCCN3C(=O)C=CC3=O)CCC12 [U73122] (first compound 2 µM, partner dose 0.4 µM)",97.4%,87.9%,103%,104%,103%,102%,122%,139%,87.5%,99.9%,99.4%,86.9%,102%,85.8%,111%,94.7%,84.2%,92.1%,101%,95.3%
"COc1ccc(-c2ccc3c(N4CCOCC4)nc(N4C[C@@H](C)O[C@@H](C)C4)nc3n2)cc1CO + c1cc(-c2cnn3cc(-c4ccc(OCCN5CCCCC5)cc4)cnc23)ccn1 [Dorsomorphin] (first compound 0.02 µM, partner dose 0.4 µM)",99%,108%,105%,91%,82.8%,102%,97.4%,162%,103%,93.7%,93.7%,84.8%,103%,116%,92.6%,87.6%,76.3%,77.6%,101%,111%
"COc1ccc(-c2ccc3c(N4CCOCC4)nc(N4C[C@@H](C)O[C@@H](C)C4)nc3n2)cc1CO + O=C(O)C(=O)Nc1sc2c(c1C(=O)O)CCNC2 [TCS401] (first compound 0.02 µM, partner dose 1.66667 µM)",97.2%,112%,103%,115%,95.2%,104%,109%,96%,87.2%,90.5%,95.7%,109%,101%,78.9%,101%,83.3%,69.8%,83.5%,91.8%,88.3%
"O=S(=O)(c1ccccc1)N(CC(F)(F)F)c1ccc(C(O)(C(F)(F)F)C(F)(F)F)cc1 + CC(C)CCN1c2nc(Nc3cc(F)c(O)c(F)c3)ncc2N(C)C(=O)C1C [BID1870] (first compound 1.4 µM, partner dose 0.2 µM)",87.1%,89.9%,87.8%,85.1%,89.4%,102%,110%,91.5%,90.6%,97.3%,88.8%,106%,92.5%,81.8%,84.5%,72.7%,87.1%,91.7%,78.8%,94.1%
"Oc1nc(-c2ccc(C(F)(F)F)cc2)nc2c1CSCC2 + Cn1cc(/C=C2\C(=O)Nc3cccnc32)c2ccccc21 [GW441756] (first compound 2 µM, partner dose 0.4 µM)",76.7%,106%,81%,92.6%,88%,104%,92.1%,66.3%,92.6%,94.6%,88%,102%,76.6%,74.6%,88.7%,88.5%,99.4%,82.4%,96.9%,66.9%
"COc1ccc(-c2ccc3c(N4CCOCC4)nc(N4C[C@@H](C)O[C@@H](C)C4)nc3n2)cc1CO + O=S(=O)(c1ccccc1)N(CC(F)(F)F)c1ccc(C(O)(C(F)(F)F)C(F)(F)F)cc1 [T0901317] (first compound 0.02 µM, partner dose 1.4 µM)",93.6%,132%,77.5%,83.1%,88.6%,108%,116%,79.8%,84.5%,85.5%,88.2%,97%,89.7%,72.2%,76.1%,79.5%,63.4%,78.5%,87.8%,85.9%
"O=C(O)C(=O)Nc1sc2c(c1C(=O)O)CCNC2 + CC(C)CCN1c2nc(Nc3cc(F)c(O)c(F)c3)ncc2N(C)C(=O)C1C [BID1870] (first compound 1.66667 µM, partner dose 0.2 µM)",99.9%,96.2%,98.4%,95.4%,97.8%,108%,109%,110%,91.1%,108%,92.8%,100%,92.6%,87.1%,83.4%,89%,83.5%,81.3%,98.3%,103%
"COC(=O)c1sccc1S(=O)(=O)Nc1ccc(Nc2ccccc2)cc1OC + COc1ccc2c(c1)CCC1C2CCC2(C)C(NCCCCCCN3C(=O)C=CC3=O)CCC12 [U73122] (first compound 1 µM, partner dose 0.4 µM)",83.8%,95.3%,87.8%,101%,98.8%,94.5%,102%,137%,115%,90.3%,110%,95.4%,110%,89.1%,118%,89%,105%,97.7%,108%,95%
